# Experimental data from the supplement of paper PMC7826260.
# The list shows a part of the results. Cleavage of a single-stranded DNA pool by Rep nickase domains was read by sequencing for 1 h at 37 °C with 3 µM enzyme; only the middle of the 90-letter strands is printed. Numbers give uncut DNA relative to the enzyme-free pool, as log2; the lower, the more was cut; hits are not called. Shares of all reads are compared; uncut strands gain when others are lost, and binding without cutting may add a little.
# How the values were obtained:
# Assay in all cases: uncleaved DNA left, log2 of reads against the no-enzyme library (log2 ratio); higher = less cleavage (more negative = more Rep cleavage of the k-mer); sequences stand for … in CTCGTCCG…ACCGGAGA
# [1] = system: T1, Rep nickase domain of Muscovy duck circovirus
# T1 sequence (residues 1-111, tag not shown): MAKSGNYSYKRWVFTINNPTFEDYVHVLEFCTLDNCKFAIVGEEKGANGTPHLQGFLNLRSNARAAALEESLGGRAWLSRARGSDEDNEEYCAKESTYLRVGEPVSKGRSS
# Description: (§1)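 A pool of 90-nt single-stranded DNAs with seven random bases just before the constant AC of the nick site (name = the seven bases) was cut by 3 µM recombinant His6-SUMO-tagged Rep nickase domain (300 nM DNA, 50 mM HEPES pH 8.0, 50 mM NaCl, 1 mM MnCl2, 1 h, 37 °C, three replicates). Uncut DNA was amplified and sequenced.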
# [2] = system: T2, Rep nickase domain of banana bunchy top virus
# T2 sequence (residues 1-94, tag not shown): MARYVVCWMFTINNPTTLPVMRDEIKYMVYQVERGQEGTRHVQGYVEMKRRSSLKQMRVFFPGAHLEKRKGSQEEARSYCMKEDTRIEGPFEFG
# Description: as §1
# [3] = system: T3, Rep nickase domain of cabbage leaf curl virus
# T3 sequence (residues 1-116, tag not shown): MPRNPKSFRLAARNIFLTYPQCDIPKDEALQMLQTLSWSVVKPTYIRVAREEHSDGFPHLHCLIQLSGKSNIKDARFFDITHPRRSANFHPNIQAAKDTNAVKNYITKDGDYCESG
# Description: as §1
# [4] = system: T4, Rep nickase domain of chickpea chlorotic dwarf virus
# T4 sequence (residues 1-124, tag not shown): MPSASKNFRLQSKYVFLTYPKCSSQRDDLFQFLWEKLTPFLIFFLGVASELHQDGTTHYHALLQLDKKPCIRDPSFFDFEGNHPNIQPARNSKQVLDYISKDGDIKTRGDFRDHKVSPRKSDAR
# Description: as §1
# [5] = system: T5, Rep nickase domain of faba bean necrotic yellows virus
# T5 sequence (residues 1-98, tag not shown): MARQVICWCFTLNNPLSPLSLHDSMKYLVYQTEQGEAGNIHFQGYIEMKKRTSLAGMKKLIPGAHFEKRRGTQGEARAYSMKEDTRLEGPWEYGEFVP
# Description: as §1
# [6] = system: T6, Rep nickase domain of maize striate mosaic virus
# T6 sequence (residues 1-117, tag not shown): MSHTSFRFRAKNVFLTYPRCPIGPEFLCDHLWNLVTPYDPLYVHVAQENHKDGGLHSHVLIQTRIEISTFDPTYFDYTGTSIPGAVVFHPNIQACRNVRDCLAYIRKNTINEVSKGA
# Description: as §1
# [7] = system: T7, Rep nickase domain of porcine circovirus 2
# T7 sequence (residues 2-116, tag not shown): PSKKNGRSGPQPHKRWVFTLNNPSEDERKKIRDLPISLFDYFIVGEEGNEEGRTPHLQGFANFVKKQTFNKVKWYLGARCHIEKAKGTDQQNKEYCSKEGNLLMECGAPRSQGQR
# Description: as §1
# [8] = system: T8, Rep nickase domain of tomato golden mosaic virus
# T8 sequence (residues 1-124, tag not shown): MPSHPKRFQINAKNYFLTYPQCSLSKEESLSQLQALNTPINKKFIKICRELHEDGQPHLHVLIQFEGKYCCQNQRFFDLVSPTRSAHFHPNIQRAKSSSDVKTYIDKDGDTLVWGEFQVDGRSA
# Description: as §1
# [9] = system: T9, Rep nickase domain of tomato yellow leaf curl virus
# T9 sequence (residues 1-136, tag not shown): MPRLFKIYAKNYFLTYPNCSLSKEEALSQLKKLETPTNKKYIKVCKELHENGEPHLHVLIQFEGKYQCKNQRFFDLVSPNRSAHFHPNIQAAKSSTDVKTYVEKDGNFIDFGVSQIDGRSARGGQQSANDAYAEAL
# Description: as §1
# [10] = system: T10, Rep nickase domain of wheat dwarf virus
# T10 sequence (residues 1-137, tag not shown): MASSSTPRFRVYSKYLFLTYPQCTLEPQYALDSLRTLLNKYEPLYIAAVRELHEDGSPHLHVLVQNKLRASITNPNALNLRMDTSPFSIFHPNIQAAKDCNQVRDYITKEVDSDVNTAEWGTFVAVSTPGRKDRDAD
# Description: as §1
Sequence,uncleaved DNA left (log2) [1],uncleaved DNA left (log2) [2],uncleaved DNA left (log2) [3],uncleaved DNA left (log2) [4],uncleaved DNA left (log2) [5],uncleaved DNA left (log2) [6],uncleaved DNA left (log2) [7],uncleaved DNA left (log2) [8],uncleaved DNA left (log2) [9],uncleaved DNA left (log2) [10]
TGACACA,0.108,0.0982,0.188,0.0357,0.0818,0.821,-0.0351,0.0679,0.133,0.0844
ACCCCTC,0.0385,-0.0237,-0.0538,-0.0235,0.0679,-0.23,0.057,0.0159,-0.0563,0.0291
ACTGTAC,0.0897,0.032,-0.0743,-0.173,0.0602,-0.00577,0.226,0.0639,-0.0528,-0.00476
TTTTTGC,-0.0168,-0.0351,-0.621,-0.186,0.0669,-1.2,0.00399,-0.0772,-0.0378,-0.219
CTATTCT,-2.91,-0.0888,-1.38,-2.34,-0.039,-1.26,-2.94,-0.254,0.0261,-0.261
GGTCACG,-0.00263,-0.0875,-0.386,-0.234,-0.0527,-0.61,0.0466,-0.0956,0.0354,-0.0509
GTGTTGT,0.0674,0.092,0.431,0.75,-0.0423,1.29,-0.347,0.0216,0.203,0.0774
CCACCTC,-0.0607,0.0225,0.105,-0.283,-0.108,0.213,-0.088,-0.0464,-0.0642,-0.138
CGAAGCG,0.0454,0.173,-0.638,-0.495,0.0628,-1.06,0.112,0.0331,0.166,0.038
GCTTGGC,0.12,-0.0195,-0.00311,0.347,-0.00506,-0.285,0.0554,0.106,0.113,-0.0816
ATACCCC,-0.0446,0.00644,0.138,0.0739,0.041,0.0381,-0.478,0.0152,-0.0777,0.108
AATTCCC,-0.878,-0.293,-0.0929,-0.466,-0.149,-0.421,-1.59,-0.0725,0.0734,-0.00448
CATCAAG,0.132,0.0675,-0.724,-0.291,0.0313,-1.04,0.198,0.0619,-0.0661,-0.0701
TATAACC,-0.253,-0.0929,-0.382,-2.15,-0.104,-0.596,-1.1,-0.0649,-0.0454,-0.0866
CTACGGC,-0.0248,-0.0816,-0.113,-0.637,-0.0734,-0.551,-0.0888,0.0651,-0.069,-0.0607
TTCAACA,-0.134,0.0131,-0.00196,-2.27,-0.0663,0.0545,-0.0547,-0.16,-0.0542,-0.079

Sequence,uncleaved DNA left (log2) [1],uncleaved DNA left (log2) [2],uncleaved DNA left (log2) [3],uncleaved DNA left (log2) [4],uncleaved DNA left (log2) [5],uncleaved DNA left (log2) [6],uncleaved DNA left (log2) [7],uncleaved DNA left (log2) [8],uncleaved DNA left (log2) [9],uncleaved DNA left (log2) [10]
CTATCAA,0.0516,0.0675,0.275,0.572,0.0206,-0.157,0.108,-0.00573,0.168,0.147
GAAACCG,-0.0253,-0.0932,-0.685,-0.795,0.08,-0.857,0.0819,0.0513,-0.00413,-0.0412
CCACCAT,-0.00101,-0.0581,0.0449,-1.2,0.0348,-0.502,-0.103,-0.0209,0.0485,0.0789
TGGTGCC,-0.095,0.0261,0.0489,0.0721,0.00643,-0.208,0.00353,-0.114,-0.0342,-0.0374
TCAATCG,0.0563,0.00201,-0.841,-0.693,0.0175,-1.22,0.18,0.117,0.114,0.0427
ATCAAGA,0.0506,0.0824,0.098,0.0266,0.0421,-0.818,0.118,0.0942,0.0565,0.0732
CTCTGAC,0.0826,0.0452,0.0276,0.159,0.119,-0.115,0.144,0.00621,0.12,0.049
CCTGAAG,-0.0298,-0.0182,-0.77,-0.288,0.0792,-0.888,0.108,0.0425,-0.00935,-0.0315
GGTCCCG,-0.0125,0.0603,-0.326,-0.378,-0.0491,-0.485,-0.127,0.0201,0.0122,0.0801
TTAAAGT,0.192,0.154,0.169,-0.317,0.115,-0.621,0.0395,0.00468,0.0786,0.0293
ATAGGGC,0.0352,-0.102,0.00647,0.436,-0.0728,-0.23,-0.00594,-0.0712,-0.133,-0.149
TCACACT,-0.111,-0.0103,-0.775,-2.74,-0.113,-0.791,-0.123,-0.152,0.00217,-0.408
TGTTCTA,0.0371,0.0485,0.262,0.254,0.054,0.983,-0.124,0.0385,0.156,0.0487
GCTCCGC,0.0459,0.0392,-0.0832,0.068,-0.0797,-0.474,-0.0142,-0.0536,-0.0457,-0.106
GGATCGA,-0.0444,0.0166,0.548,1.23,-0.0521,1.33,0.165,0.038,0.0626,0.158
